Experimental data taken from PubChem BioAssay AID902 (National Center for Advancing Translational Sciences (NCATS), 2007).
Among all 130,000 compounds or so, about 1,900 (1.5%) were called active. Inconclusive means that the source gave no clear call. Such entries were picked first, then a sample of the others. The call rests on the fitted dose curve; in most records, active means well fitted cell-killing curve with a large enough effect; inconclusive means small, poorly fitted or top-dose-only effect; inactive means no such curve, though single readings can be large or run the other way. Potencies beside an inconclusive call are fits to weak or partial responses and may not hold up.

Assay: qHTS Screen for Compounds that Selectively Target Cancer Cells with p53 Mutations: Cytotoxicity of p53ts Cells at the Nonpermissive Temperature; further: nearly all actives have a fitted effect of over 55% in size
Conditions: H1299-p53A138V viability at 39C, ATP luminescence, 24 h; activity change, negative = cell killing: at 46.1 µM (top of the series)
On the % scale 0 is the no-effect control and ±100 the full control effect; potency means the concentration at half of the fitted maximal effect; tags describe the fitted curve by direction and shape.

SMILES	Potency	activity change, negative = cell killing
CC1CN(C(=O)N2CCC(C(=O)NCCC3=CCCCC3)CC2)c2cc(Cl)ccc2O1 (configuration not stated)	inconclusive: 4.47 µM [cytotoxic, partial curve]	–
CCOc1ccc(-c2cc(C(=O)N3CCN(C)CC3)c3ccccc3n2)cc1	active: 3.98 µM	–
CCOC(=O)c1cc(C)n(CC2CCC(C(=O)Nc3ccc(OCC)cc3)CC2)c1C (configuration not stated)	inconclusive: 10 µM [cytotoxic, single point]	–
CC(=O)N1c2ccccc2C(=O)C1N1CCN(c2ccc(F)cc2)CC1 (configuration not stated)	inconclusive: 0.631 µM [cytotoxic, full curve]	–
Cc1n[nH]c(C)c1S(=O)(=O)N(CC(=O)NCc1ccccc1Cl)c1ccc(C(C)C)cc1	inconclusive: 12.6 µM [cytotoxic, single point]	–
CCOc1ccccc1CNC(=O)CCc1cn(Cc2ccc(Cl)cc2)c2ccccc12	–	inactive: 11.3%
COc1ccc2[nH]c(=O)c(CN(Cc3ccccc3)Cc3nnnn3CC3CCCO3)cc2c1 (configuration not stated)	inconclusive: 15.8 µM [cytotoxic, single point]	–
Cc1ccc(NC(=O)CN2C(=O)COc3ccc(S(=O)(=O)N4CCCCCC4)cc32)cc1C	inconclusive: 0.005 µM [cytotoxic, full curve, poor fit]	–
CCOc1cccc(CNc2ccc(O)cc2)c1OCc1ccccc1Cl	inconclusive: 31.6 µM [cytotoxic, single point]	–
N#C/C(=C\c1ccc(-c2ccc(F)cc2F)o1)c1nc2ccccc2[nH]1	active: 6.31 µM	–
CCCn1c(-c2ccc(F)cc2)nc2c(N3CCN(CCC(=O)OCC)CC3)nc(C)nc21	–	inactive: -0.675%
CC(Oc1ccc(F)cc1)C(=O)Nc1cc(-c2ccc(F)c(F)c2)no1 (configuration not stated)	inconclusive: 10 µM [cytotoxic, single point]	–
CCc1ccc(NC(=O)CC2C(=O)N(c3ccc(Cl)cc3)C(=O)N2Cc2cccs2)cc1 (configuration not stated)	inconclusive: 31.6 µM [cytotoxic, single point]	–
CN(C)c1ccc(C(=O)c2ccc(O)cc2O)cc1	inconclusive: 15.8 µM [cytotoxic, partial curve]	–
Cc1cccc(OCC(=O)Nc2ccc(-c3nc4cc(C)ccc4o3)c(O)c2)c1	active: 10 µM	–
CCC1CN(C(=O)N2CCC(C(=O)NCCC3=CCCCC3)CC2)c2cc(C)ccc2O1 (configuration not stated)	–	inactive: -20.9%
COC(=O)c1cc2sc(Cl)cc2n1Cc1nc(-c2ccc(OC)cc2)oc1C	inconclusive: 0.004 µM [cytotoxic, full curve, poor fit]	–
CN(CCc1ccc(Cl)c(Cl)c1)CCN1CCCC1	inconclusive: 25.1 µM [cytotoxic, single point]	–
CC(C)(C)c1ccc(C2NC(=O)c3n[nH]c(-c4cccs4)c32)cc1 (configuration not stated)	inconclusive: 31.6 µM [cytotoxic, single point]	–
c1ccc(-c2nn3c(-c4ccncc4)nnc3s2)nc1	–	inactive: 11%
COc1ccc(S(=O)(=O)Nc2cccc(-c3ccc(N4CCCCCC4)nn3)c2)cc1	inconclusive: 7.94 µM [cytotoxic, partial curve, poor fit]	–

SMILES	Potency	activity change, negative = cell killing
O=c1cc(-c2ccccc2)nc2cc(-c3ccc(F)cc3)[nH]n12	active: 10 µM	–
COc1ccccc1NC(=O)Cn1c(=O)n(CCc2ccccc2)c(=O)c2c3c(sc21)CN(C(C)=O)CC3	–	inactive: -10.9%
CCOc1ccccc1NC(=O)c1sc2nc(-c3ccc(OC)cc3)ccc2c1N	active: 3.98 µM	–
COc1ccc(-n2c(/C=C/c3cccc4ccccc34)nc3ccccc3c2=O)cc1Cl	inconclusive: 0.0063 µM [cytotoxic, full curve]	–
CC1CCC2C(=O)OC(CN=[N+]=[N-])CN2C1c1ccc(Br)cc1 (configuration not stated)	–	inactive: 0.0821% [at 9.22 µM] [middle of 6 runs]
COc1ccc(CC(=O)Nc2c(C(=O)Nc3ccc(F)cc3)oc3ccccc23)cc1OC	inconclusive: 10 µM [cytotoxic, single point]	–
O=C(CCSCc1ccccc1F)N1CCN(c2ccc(Cl)cc2)CC1	inconclusive: 5.01 µM [cytotoxic, partial curve]	–
CN(C)C(=O)c1ccc(-c2nc(Nc3ccncc3)c3ccccc3n2)cc1	inconclusive: 12.6 µM [cytotoxic, partial curve]	–
Cc1cc(-c2nnco2)c(C)n1-c1ccccc1	inconclusive: 10 µM [cytotoxic, partial curve]	–
COc1ccc(-n2nnc(-c3nsc(NC(=O)c4cccs4)n3)c2C)cc1OC	inconclusive: 3.16 µM [cytotoxic, full curve]	–
Cc1cccc(NC(=O)C(=O)NCCc2sc(-c3ccccc3)nc2C)c1C	inconclusive: 7.94 µM [cytotoxic, partial curve, poor fit]	–
COc1ccc(C)cc1NC(=O)c1cc(S(=O)(=O)N2CCC(C)CC2)cn1C	inconclusive: 0.0501 µM [cytotoxic, full curve]	–
Cc1cccc(N2CCN(C(=O)c3c(C)oc4ncnc(N5CCOCC5)c34)CC2)c1C	inconclusive: 0.0079 µM [cytotoxic, full curve, poor fit]	–
Cc1nn(C(=O)COc2ccccc2Br)c(C)c1Sc1ccccc1	–	inactive: -15.3%
CCC(=O)Nc1nc(-c2ccccc2)ns1	–	inactive: 13.1%
COC(=O)c1ccccc1NC(=O)c1ccc2c(c1)OCCO2	inconclusive: 15.8 µM [cytotoxic, single point]	–
CCOC(=O)C1=C(C)NC(=O)NC1c1cn(-c2ccccc2)nc1-c1ccc(OC(C)C)cc1 (configuration not stated)	inconclusive: 25.1 µM [cytotoxic, single point]	–
COC(=O)c1ccc(CSc2nc(-c3ccccc3)cs2)o1	inconclusive: 12.6 µM [cytotoxic, single point]	–
O=C(Cn1cnc2onc(-c3ccc(F)cc3)c2c1=O)Nc1ccc(F)c(Cl)c1	active: 12.6 µM	–
CC1CCN(CCC(=O)Nc2ccc(Br)cc2)CC1	inconclusive: 25.1 µM [cytotoxic, single point]	–
COc1cccc(C(=O)Nc2cccc(-c3cn4ccsc4n3)c2)c1OC	inconclusive: 10 µM [cytotoxic, partial curve]	–
